# Results published in the supplement of paper PMC12217912.
# Some of the results follow. Sequences were assembled here from the parent chain. Inactive controls read about 0.05.
# B1: TEV protease; numbered along this chain (parent)
# chain: MGESLFKGPRDYNPISSSICHLTNESDGHTTSLYGIGFGPFIITNKHLFRRNNGTLVVQSLHGVFKVKDTTTLQQHLVDGRDMIIIRMPKDFPPFPQKLKFREPQREERICLVTTNFQTKSMSSMVSDTSCTFPSGDGIFWKHWIQTKDGQCGSPLVSTRDGFIVGIHSASNFTNTNNYFTSVPKNFMELLTNQEAQQWVSGWRLNADSVLWGGHKVFMVKPEEPFQPVKEATQL
# Variants of: B1
# Experiment: raw area under fraction-flipped curve 0-4 h after induction (AUC4h, not background-subtracted), DNA-recorder readout of cleavage of the substrate (dimensionless); higher = more cleavage of the substrate by the protease variant
# Settings: temperature: 34 °C; time window: 0-4 h after rhamnose induction
# 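Note: Bxb1 expression induced with 0.2% (w/v) L-rhamnose at OD600 near 0.5, cultures sampled hourly, flipped fraction per protease–substrate barcode pair counted by paired-end Illumina sequencing.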
Variant,area with substrate ENLCFQS,area with substrate ENLEFQS,area with substrate ENLHFQS,area with substrate ENLIFQS,area with substrate ENLKFQS,area with substrate ENLLFQS,area with substrate ENLMFQS,area with substrate ENLPFQS,area with substrate ENLQFQS,area with substrate ENLRFQS,area with substrate ENLSFQS,area with substrate ENLWFQS,area with substrate ENLDFQS,area with substrate ENLFFQS,area with substrate ENLGFQS,area with substrate ENLNFQS,area with substrate ENLVFQS,area with substrate ENLTFQS
MGESLFKGPRDYNPISSSICHLTNESDGHTTSLYGIGFGPFIITNKHLFRRNNGTLVVQSLHGVFKVKDTTTLQQHLVDGRDMIIIRMPKDFPPFPQKLKFREPQREERICLVTTNFQTKSMSSMVSDTSCTFPSGDGIFWKHWIQTKDGQCGSPLVSTRDGFIVGIMSASNFTNTNNYFTSVPKNFMELLTNQEAQQWVSGWRLNADSVLWGGHKVFMVKPEEPFQPVKEATQL [H168M],0.0992,0.0621,0.0542,0.0581,0.0256,0.0637,0.049,0.0186,0.0577,0.0577,0.0406,0.0688,,,,,,
MGESLFKGPRDYNPISSSICHLTNESDGHTTSLYGIGFGPFIITNKHLFRRNNGTLVVQSLHGVFKVKDTTTLQQHLVDGRDMIIIRMPKDFPPFPQKLKFREPQREERICLVTTNFQTKSMSSMVSDTSCTFPSGDGIFWKHWIQTKDGQCGSPLVSTRDGFIVGIDSASNFTNTNNYFTSVPKNFMELLTNQEAQQWVSGWRLNADSVLWGGHKVFMVKPEEPFQPVKEATQL [H168D],0.0564,0.0623,0.0569,0.0715,0.0658,0.0783,,0.0563,0.0582,0.0669,0.0589,0.0583,0.0621,0.06,0.0584,0.069,0.0545,
MGESLFKGPRDYNPISSSICHLTNESDGHTTSLYGIGFGPFIITNKHLFRRNNGTLVVQSLHGVFKVKDTTTLQQHLVDGRDMIIIRMPKDFPPFPQKLKFREPQREERICLVTTNFQTKSMSSMVSDTSCTFPSGDGIFWKHWIQTKDGQCGSPLVSTRDGFIVGIHSASNFTNTNNYFTSVPKNFMELLTNQEAQQWPSGWRLNADSVLWGGHKVFMVKPEEPFQPVKEATQL [V200P],0.062,0.085,,,0.0701,,,0.0799,0.0634,,0.0559,0.025,0.0633,0.0693,0.0566,0.0693,,
MGESLFKGPRDYNPISSSICHLTNESDGHTTSLYGIGFGPFIITNKHLFRRNNGTLVVQSLHGVFKVKDTTTLQQHLVDGRDMIIIRMPKDFPPFPQKLKFREPQREERICLVTTNFQTKSMSSMVSDTSCTFPSGDGIFWKHWIQTKDGQCGSPLVSTRDGFIVGIHSASNFTNTNNYFTSVPKNFMELLTNQEAQQWLSGWRLNADSVLWGGHKVFMVKPEEPFQPVKEATQL [V200L],0.0505,0.0626,,0.0532,0.0628,,,0.0543,0.0736,,,,0.0629,0.0693,,0.0493,,
MGESLFKGPRDYNPISSSICHLTNESDGHTTSLYGIGFGPFIITNKHLFRRNNGTLVVQSLHGVFKVKDTTTLQQHLVDGRDMIIIRMPKDFPPFPQKLKFREPQREERICLVTTNFQTKSMSSMVSDTSCTFPSGDGIFWKHWIQTKDGQCGSPLVSTRDGFIVGIHSASNFTNTNNYFTSVPKNFMELLTNQEAQQWHSGWRLNADSVLWGGHKVFMVKPEEPFQPVKEATQL [V200H],0.057,0.0655,0.0651,,0.0711,,0.0628,0.0599,0.0522,0.0607,0.0608,0.0512,0.0643,0.0671,0.0623,0.0644,,
MGESLFKGPRDYNPISSSICHLTNESDGHTTSLYGIGFGPFIITNKHLFRRNNGTLVVQSLHGVFKVKDTTTLQQHLVDGRDMIIIRMPKDFPPFPQKLKFREPQREERICLVTTNFQTKSMSSMVSDTSCTFPSGDGIFWKHWIQTKDGQCGSPLVSTRDGFIVGIHSASNFTNTNNYFTSVPKNFMELLTNQEAQQWVSGWRLNADSVLWGGHQVFMVKPEEPFQPVKEATQL [K216Q],0.059,,0.074,,,,,,,,,,0.0678,0.0898,,,,
MGESLFKGPRDYNPISSSICHLTNESDGHTTSLYGIGFGPFIITNKHLFRRNNGTLVVQSLHGVFKVKDTTTLQQHLVDGRDMIIIRMPKDFPPFPQKLKFREPQREERICLVTTNFQTKSMSSMVSDTSCTFPSGDGIFWKHWIQTKDGQCGSPLVSTRDGFIVGIHSASNFTNTNNYFTSVPKNFMELLTNQEAQQWVSGWRLNADSVLWGGHRVFMVKPEEPFQPVKEATQL [K216R],0.0756,,0.0668,,,,,0.056,,,,,,0.123,,,0.103,0.0824
MGESLFKGPRDYNPISSSICHLTNESDGHTTSLYGIGFGPFIITNKHLFRRNNGTLVVQSLHGVFKVKDTTTLQQHLVDGRDMIIIRMPKDFPPFPQKLKFREPQREERICLVTTNFQTKSMSSMVSDTSCTFPSGDGIFWKHWIQTKDGQCGSPLVSTRDGFIVGIHSASNFTNTNNYFTSVPKNFMELLTNQEAQQWVSGWRLNADSVLWGGHSVFMVKPEEPFQPVKEATQL [K216S],0.0549,0.0572,,,,0.0615,,0.0446,,,,,0.0622,0.0714,,0.0638,,
MGESLFKGPRDYNPISSSICHLTNESDGHTTSLYGIGFGPFIITNKHLFRRNNGTLVVQSLHGVFKVKDTTTLQQHLVDGRDMIIIRMPKDFPPFPQKLKFREPQREERICLVTTNFQTKSMSSMVSDTSCTFPSGDGIFWKHWIQTKDGQCGSPLVSTRDGFIVGIHSASNFTNTNNYFTSVPKNFMELLTNQEAQQWVSGWRLNADSVLWGGHGVFMVKPEEPFQPVKEATQL [K216G],0.0327,0.0584,0.053,,0.0454,,,0.044,,0.0455,0.054,,0.0471,0.049,,0.0457,0.0391,
MGESLFKGPRDYNPISSSICHLTNESDGHTTSLYGIGFGPFIITNKHLFRRNNGTLVVQSLHGVFKVKDTTTLQQHLVDGRDMIIIRMPKDFPPFPQKLKFREPQREERICLVTTNFQTKSMSSMVSDTSCTFPSGDGIFWKHWIQTKDGQCGSPLVSTRDGFIVGIHSASNFTNTNNYFTSVPKNFMELLTNQEAQQWVSGWRLNADSVLWGGHIVFMVKPEEPFQPVKEATQL [K216I],0.0711,,,,0.0767,0.0669,,0.0627,0.069,,,,0.0562,,,0.0625,,
